Measured values published in article PMC3142171.
No constants are given. Whether binding was seen depends on the method and setting. For some assays here: Binding seen in cells or lysates may run through a third protein. Some results given as binding are weak or reduced against the parent protein; the word gives no strength. For some assays here: Where a sequence is shown, tags or fusion partners need not be part of it.

Protein sequences, listed by entry. Tags and fused reporters are not part of them. Lines headed by an entry give the natural chain unless they say otherwise; changes in a name come on top. Residues count along the entry.
UniProt Q13838: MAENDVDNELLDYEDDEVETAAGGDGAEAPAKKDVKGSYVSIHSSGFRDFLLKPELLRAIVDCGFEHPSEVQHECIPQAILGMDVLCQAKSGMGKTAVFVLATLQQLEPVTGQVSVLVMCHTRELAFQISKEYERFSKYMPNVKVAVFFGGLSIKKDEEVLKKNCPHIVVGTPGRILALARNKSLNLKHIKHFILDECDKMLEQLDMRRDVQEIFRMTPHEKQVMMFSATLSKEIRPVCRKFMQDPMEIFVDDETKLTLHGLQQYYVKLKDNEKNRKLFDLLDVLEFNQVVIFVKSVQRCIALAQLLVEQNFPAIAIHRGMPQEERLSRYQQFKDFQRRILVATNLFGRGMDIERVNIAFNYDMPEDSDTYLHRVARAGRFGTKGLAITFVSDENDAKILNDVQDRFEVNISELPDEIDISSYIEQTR
FLAG-UAP56aa1-194: residues 1-194 of Q13838
FLAG-UAP56aa195-428: residues 195-428 of Q13838
βGAL-NLS-UAP56aa227-428: residues 227-428 of Q13838
βGAL-NLS-UAP56aa298-428: residues 298-428 of Q13838
UniProt P16749: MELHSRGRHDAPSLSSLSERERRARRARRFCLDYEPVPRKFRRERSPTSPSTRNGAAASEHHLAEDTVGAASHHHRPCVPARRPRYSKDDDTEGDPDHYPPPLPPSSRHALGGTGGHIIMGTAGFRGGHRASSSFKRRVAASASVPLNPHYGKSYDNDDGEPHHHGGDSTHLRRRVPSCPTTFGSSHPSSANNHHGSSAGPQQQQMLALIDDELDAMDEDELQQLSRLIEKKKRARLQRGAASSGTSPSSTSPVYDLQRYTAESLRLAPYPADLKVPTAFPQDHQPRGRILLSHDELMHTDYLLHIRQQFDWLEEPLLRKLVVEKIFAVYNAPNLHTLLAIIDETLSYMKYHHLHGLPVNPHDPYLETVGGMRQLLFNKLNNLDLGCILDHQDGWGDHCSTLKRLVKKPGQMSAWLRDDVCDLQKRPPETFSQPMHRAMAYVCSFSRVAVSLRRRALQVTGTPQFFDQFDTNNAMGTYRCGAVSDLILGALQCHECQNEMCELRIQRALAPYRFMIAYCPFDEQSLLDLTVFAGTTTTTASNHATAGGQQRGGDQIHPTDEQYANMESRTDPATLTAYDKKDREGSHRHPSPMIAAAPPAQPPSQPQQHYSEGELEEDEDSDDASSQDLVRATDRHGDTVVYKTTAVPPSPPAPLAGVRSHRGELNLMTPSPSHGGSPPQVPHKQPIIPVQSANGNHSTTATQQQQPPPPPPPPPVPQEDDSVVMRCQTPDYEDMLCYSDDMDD
UniProt O00148: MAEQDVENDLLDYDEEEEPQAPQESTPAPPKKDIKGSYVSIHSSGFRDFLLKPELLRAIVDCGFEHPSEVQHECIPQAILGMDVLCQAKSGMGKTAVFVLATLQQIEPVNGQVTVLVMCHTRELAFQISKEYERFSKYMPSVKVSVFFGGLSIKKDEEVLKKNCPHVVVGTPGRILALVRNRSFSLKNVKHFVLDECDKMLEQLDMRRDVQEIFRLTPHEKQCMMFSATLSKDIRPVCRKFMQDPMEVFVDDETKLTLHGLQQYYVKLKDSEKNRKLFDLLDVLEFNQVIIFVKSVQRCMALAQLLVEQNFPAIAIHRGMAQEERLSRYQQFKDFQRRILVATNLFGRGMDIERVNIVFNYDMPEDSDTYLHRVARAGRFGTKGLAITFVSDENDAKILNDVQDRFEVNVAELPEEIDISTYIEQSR

Tests used:
[1] = biological target: βGAL-NLS-UAP56aa195-428 (human) (UniProt Q13838); test: co-IP; HEK293T cells cotransfected with pUL69 and NLS-βGal or βGal-NLS-UAP56 truncations; immunoprecipitation with anti-β-galactosidase, detection with α-pUL69; CoIP buffer 50 mM Tris-HCl pH 8.0, 150 mM NaCl, 5 mM EDTA, 0.5% NP-40
[2] = biological target: βGAL-NLS-UAP56aa227-428 (human) (UniProt Q13838); test: as above
[3] = biological target: βGAL-NLS-UAP56aa298-428 (human) (UniProt Q13838); test: as above
[4] = biological target: pUL69 fused to the GAL4 DNA-binding domain (human cytomegalovirus) (UniProt P16749); test: two-hybrid; S. cerevisiae Y153; UAP56 or URH49 variants fused to the GAL4 activation domain, REF or pUL69 fused to the GAL4 DNA-binding domain; filter-lift assay for β-galactosidase
[5] = biological target: FLAG-UAP56 full-length (human) (UniProt Q13838); test: co-IP; HEK293T cells cotransfected with HA-Rae1 and FLAG-tagged UL69, UAP56 or URH49 variants; immunoprecipitation with anti-FLAG, detection with polyclonal HA-antibody; CoIP buffer 50 mM Tris-HCl pH 8.0, 150 mM NaCl, 5 mM EDTA, 0.5% NP-40
[6] = biological target: FLAG-UAP56-Q289R+F312A (human) (UniProt Q13838); test: as above
[7] = biological target: FLAG-UAP56aa1-194 (human) (UniProt Q13838); test: as above
[8] = biological target: FLAG-UAP56aa195-428 (human) (UniProt Q13838); test: as above
[9] = biological target: FLAG-UL69 (human cytomegalovirus) (UniProt P16749); test: as above
[10] = biological target: FLAG-URH49 full-length (human) (UniProt O00148); test: as above

What does the source list for pUL69 (from UniProt P16749 1-744)?
binding [1]: binds; binding [2]: binds; binding [3]: no binding

How did the binding [4] turn out when “UAP56 aa195-428 fused to the GAL4 activation domain (from UniProt Q13838 195-428) (domain or fragment)” was run?
The binding was “binds”.

How did the binding [4] turn out when “URH49 aa194-427 fused to the GAL4 activation domain (from UniProt O00148 194-427) (domain or fragment)” was run?
The binding was “binds”.

B1: HA-Rae1 (protein, UniProt P78406 1-368)
chain: MSLFGTTSGFGTSGTSMFGSATTDNHNPMKDIEVTSSPDDSIGCLSFSPPTLPGNFLIAGSWANDVRCWEVQDSGQTIPKAQQMHTGPVLDVCWSDDGSKVFTASCDKTAKMWDLSSNQAIQIAQHDAPVKTIHWIKAPNYSCVMTGSWDKTLKFWDTRSSNPMMVLQLPERCYCADVIYPMAVVATAERGLIVYQLENQPSEFRRIESPLKHQHRCVAIFKDKQNKPTGFALGSIEGRVAIHYINPPNPAKDNFTFKCHRSNGTNTSAPQDIYAVNGIAFHPVHGTLATVGSDGRFSFWDKDARTKLKTSEQLDQPISACCFNHNGNIFAYASSYDWSKGHEFYNPQKKNYIFLRNAAEELKPRNKK
For B1, which binding [5] is on record?
Its binding is “no binding”.

What about the binding [6] of the same molecule?
The binding was “no binding”.

And the binding [7]?
Its binding is “binds”.

And the binding [8]?
The binding was “no binding”.

What about the binding [9] of the same molecule?
Its binding is “binds weakly”.

And the binding [10]?
Its binding is “no binding”.
